These results are taken from PubChem BioAssay AID1159614 (National Center for Advancing Translational Sciences (NCATS), 2016).

About 65 (0.1%) of roughly 45,000 compounds were called active. Calls come from the whole dose curve; as a rule, active = well fitted activation curve with a large enough effect; inconclusive = small, poorly fitted or top-dose-only effect; inactive = no such curve, though single readings can be large or run the other way. Some of the results follow.

The test has as its target Galactocerebrosidase (Homo sapiens) (UniProt P54803). In words: A Novel Cell-Based Assay to Identify Small Molecules for B -Galactocerebrosidase. Note: 0% is about no effect; nearly all actives have a fitted effect of over 65% in size. Conditions: 145M-Twi-hGALC-G270D cells (Twitcher mouse brain line with human GALC G270D), HMU-beta-Gal fluorescence, 48 h; series mostly up to 57.5 µM; activation: at the top concentration. The procedure, abridged: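 Mutant human GALC (G270D), stably expressed in a Twitcher mouse brain cell line lacking endogenous GALC, is measured in live-treated cells via 6-hexadecanoylamino-4-methylumbelliferyl-β-galactoside hydrolysis (0.1 mM final, pH 5.2) with fluorescent detection.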
UniProt P54803, sequence (P54803 whole entry, looked up): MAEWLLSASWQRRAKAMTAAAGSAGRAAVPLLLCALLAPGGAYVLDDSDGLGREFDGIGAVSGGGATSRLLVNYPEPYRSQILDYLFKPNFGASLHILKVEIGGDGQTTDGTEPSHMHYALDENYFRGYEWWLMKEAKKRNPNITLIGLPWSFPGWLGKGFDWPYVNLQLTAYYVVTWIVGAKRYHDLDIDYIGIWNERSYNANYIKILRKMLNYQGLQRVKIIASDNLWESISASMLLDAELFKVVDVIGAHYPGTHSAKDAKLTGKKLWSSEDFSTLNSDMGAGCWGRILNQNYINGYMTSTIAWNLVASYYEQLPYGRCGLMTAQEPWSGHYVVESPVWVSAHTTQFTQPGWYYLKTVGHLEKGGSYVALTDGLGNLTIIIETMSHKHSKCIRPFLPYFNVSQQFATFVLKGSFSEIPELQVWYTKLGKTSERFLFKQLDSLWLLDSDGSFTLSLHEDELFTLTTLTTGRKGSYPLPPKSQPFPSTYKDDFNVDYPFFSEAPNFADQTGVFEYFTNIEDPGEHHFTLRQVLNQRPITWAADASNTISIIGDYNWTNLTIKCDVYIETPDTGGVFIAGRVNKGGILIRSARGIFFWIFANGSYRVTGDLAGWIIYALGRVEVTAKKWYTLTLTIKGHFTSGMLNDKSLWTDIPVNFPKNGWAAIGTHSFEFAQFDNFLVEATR
Take `COC(=O)COc1ccc(Oc2nc(NC(C)(C)C)nc(N3CCOCC3)n2)nn1`: the “activation” value was inactive: -0.237%.
The figure for `Cc1c(C(=O)NCc2ccc(F)cc2)sc2nc3n(c(=O)c12)CCC3` is inactive: -19.8%; for `COc1ccc(-c2ccc(=O)n(CC(=O)Nc3ccc(N(C)C)cc3)n2)cc1` it is inactive: 5.11%; for `O=C(Cn1nc(C(F)(F)F)c2c1CCCC2)Nc1ccc(F)c(Cl)c1` it is inactive: -3.88%.
The figure for `O=C(Cn1c(=O)oc2cc(S(=O)(=O)NCc3ccccc3)ccc21)NCc1ccc(F)cc1` is inactive: -15.4%; for `COc1ccc(/C=C/C(=O)Nc2ccc(Cl)c(Cl)c2)cc1OC` it is inactive: -5.29%; for `CCOc1ccc(NC(=O)c2cc(CN3CCCC3)on2)cc1` it is inactive: -7.53%.
The figure for `COc1ccc(OC)c(NC(=O)Cn2cc(C(=O)c3cccs3)c3ccccc32)c1` is inactive: -23.1%.
Regarding `CSc1ccc(C2c3c(oc4ccc(F)cc4c3=O)C(=O)N2c2ccc(C)cn2)cc1` (stereo not given), the “activation” value is inactive: -15.5%.
The value for `CCOc1ccc2oc(=O)cc(CN3CCN(C(=O)c4ccc(Cl)cc4)CC3)c2c1` was inactive: 4.41%; that for `CCCCc1nn2c(=O)cc(COC(=O)CNC(=O)c3ccccc3C)nc2s1` was inactive: 12.2%; that for `Cc1cccc(N(C)C(=O)C2CCN(S(=O)(=O)c3cccc4nonc34)CC2)c1` was inactive: -7.45%.
The figure for `Cc1ccc2nc(Nc3ccc(Br)cc3)nc(-c3ccccc3)c2c1` is inactive: -9.76%; for `Cc1c(NC(=O)c2cc3ccccc3o2)cccc1-c1nc2ccccc2o1` it is inactive: -12.4%.
For the molecule `CCc1cccc(CC)c1NC(=O)Cc1csc(C)n1`, the “activation” value was inactive: -4.44%.
The value for `CCN(CC)CCOc1ccc(C(O)(Cc2ccc(Cl)cc2)c2ccc(C)cc2)cc1` (stereo not given) was inactive: -14.4%; that for `Cc1cc(Nc2cccc(F)c2)n2nc(-c3ccco3)nc2n1` was inactive: -8.27%; that for `CCC(=O)N1CCc2cc(CNS(=O)(=O)c3ccc(Cl)s3)ccc21` was inactive: -7%.
The value for `Cc1cccc(CN2C(=O)c3ccccc3Sc3ccc(C(=O)NCCc4ccccc4)cc32)c1` was inactive: -14.3%.
The value for `Cc1ccc(Cl)cc1NC(=O)N1CCc2cc(S(=O)(=O)N3CCC(C)CC3)ccc21` was inactive: -16.7%.
For the molecule `O=C(Nc1nnc2n1CCS2)c1ccccc1`, the “activation” value was inactive: -0.737%.
For the molecule `Cc1cccc(-n2ncc3c(N4CCN(CCO)CC4)ncnc32)c1`, the “activation” value was inactive: -13%.
The value for `COC(=O)c1ccc2c(=O)n(CCCCCC(=O)NC(C)C)c(=O)[nH]c2c1` was inactive: -14.8%; that for `O=C(NCc1ccccc1)N1CCc2c(sc3c2CCCC3)C1c1ccccc1` (stereo not given) was inactive: -13.1%; that for `Cc1cc(C)cc(NC(=O)CCS(=O)(=O)c2ccc3c(c2)oc(=O)n3C)c1` was inactive: -16.5%.
On to `CCOc1ccc(/C=C/c2nc3ccccc3n2S(=O)(=O)c2cccc(Cl)c2)cc1`, for which the “activation” value is inactive: -16.6%.
The value for `COc1ccccc1CNC(=O)c1ccc(Nc2nc3ccccc3n3nnnc23)cc1` was inactive: -10.9%; that for `CCOC(=O)c1cc(-c2ccc(OC)cc2)n(CCC(=O)Nc2ccc(OC)cc2OC)c1C` was inactive: -0.248%.
The figure for `CCOc1ccc(C(=O)Nc2ccc3nc(SCC(=O)N(C)c4ccccc4)sc3c2)cc1` is inactive: -21.3%; for `CC(C)c1ccc(/C=C(\C#N)c2nc(-c3cc4ccccc4oc3=O)cs2)cc1` it is inactive: -15.7%; for `CC1CCN(S(=O)(=O)c2ccc3nc(Nc4cccc(C(F)(F)F)c4)ccc3c2)CC1` it is inactive: -21.1%.
With `COc1cccc(-c2nc(SCC(=O)NC3CCCC3)c(-c3ccc(F)cc3)[nH]2)c1`, the “activation” value is inactive: -18.2%.
The figure for `COc1cc(NC(=O)CCc2c(C)nc3c4c(C)cc(C)nc4nn3c2C)cc(OC)c1` is inactive: -0.324%.
Consider `Cc1cc(C)cc(NC(=O)CCCn2nc(C)c3c(C)n(-c4ccccc4)nc3c2=O)c1`, for which the “activation” value was inactive: -13.2%.
The value for `COc1ccc(NC(=O)CN(c2ccccc2OC)S(C)(=O)=O)c(OC)c1` was inactive: -10.5%; that for `CCOC(=O)C1(C)C=C(Nc2cccc(C)c2)C(=O)N1c1ccccc1` (stereo not given) was inactive: -4.8%; that for `COc1cc(-c2nnc(SCC(=O)Oc3ccc(C)cc3C)o2)cc(OC)c1OC` was inactive: -1.69%.
In the case of `Cc1ccc(CNC(=O)c2nc(S(=O)(=O)Cc3ccc(C)cc3)ncc2Cl)cc1`, the “activation” value was inactive: -14.5%.
In the case of `CCOC(=O)CCn1cnc2onc(-c3ccccc3Cl)c2c1=O`, the “activation” value was inactive: -10.5%.
The figure for `CCOc1ccccc1NC(=O)C1=C(C)Nc2ncnn2C1c1ccccn1` (stereo not given) is inactive: -6.59%; for `COc1ccc(C2=C(C)C(=O)N(Cc3ccc(C(=O)Nc4ccc(C)c(C)c4)cc3)S2(=O)=O)cc1` it is inactive: -24.2%.
The figure for `COc1cc(Cl)c(C)cc1NS(=O)(=O)c1c(C)nc2sccn2c1=O` is inactive: -11.3%; for `COC(=O)c1ccc(Nc2ncnc3c2cnn3-c2ccccc2)cc1` it is inactive: 7.52%; for `COc1cc(OC)cc(-c2cc3nc(C)c(CCC(=O)Nc4ccc(F)c(Cl)c4)c(C)n3n2)c1` it is inactive: -20.3%.
Consider `CC(C)c1ccc(NC(=O)C(NS(=O)(=O)c2ccc3c(c2)CCC(=O)N3)c2ccccc2)cc1` (stereo not given), for which the “activation” value was inactive: -21%.
The value for `CCOCN(C(=O)Cn1c(CC(C)C)nc2ccccc21)c1c(C)cccc1CC` was inactive: -14.3%.
In the case of `CCOc1ccccc1Nc1ncnc2c1c(-c1ccccc1)cn2-c1ccc(OC)cc1`, the “activation” value was inactive: 0.349%.
The value for `Cn1c(=O)cc(OCC(=O)N2CCN(c3ccc(F)cc3)CC2)c2ccccc21` was inactive: -9.89%; that for `O=C1c2[nH]nc(-c3ccccc3O)c2C(c2ccc(Cl)cc2)N1CCc1ccccc1` (stereo not given) was inactive: -20.7%.
The figure for `Cc1ccc(-c2cn3cccnc3n2)cc1NC(=O)Cc1ccccc1` is inactive: 13.2%; for `O=S(=O)(c1ccccc1)c1nc(-c2ccccc2)oc1N1CCN(c2cccc(Cl)c2)CC1` it is inactive: -8.07%.
The value for `CCc1ccc(NC(=O)COCc2cc(-c3ccc(F)cc3)on2)cc1` was inactive: -8.55%; that for `O=C(CSCc1cnn(-c2ccccc2)c1-n1cccc1)NCc1ccccc1Br` was inactive: -2.56%.
As for `Cc1cc(C)cc(NC(=O)c2ncn(-c3ccccc3)n2)c1`, the “activation” value was inactive: -15.9%.
The figure for `Cc1c(Cl)cccc1NC(=O)C(C)N(c1ccccc1)S(C)(=O)=O` (stereo not given) is inactive: -16.1%; for `CCc1ccc(NC(=O)N(Cc2cn(CC)c3ccccc23)C2CCCCC2)cc1` it is inactive: 1.71%; for `COc1cccc(NC(=O)C2CCN(c3cc(C)nc4c(-c5ccc(Cl)cc5)c(C)nn34)CC2)c1` it is inactive: 8.51%.
The value for `O=C(COc1ccc(F)cc1)NC1CC(=O)N(c2ccc3c(c2)OCCO3)C1` (stereo not given) was inactive: -7.93%.
The value for `COc1ccc(CNC(=O)c2ccc3c(c2)CCN3S(=O)(=O)c2ccc(Cl)cc2)cc1` was inactive: -14.3%; that for `Cc1ccc(-c2nn3c(=O)cc(CN4CCN(S(=O)(=O)c5ccc(Cl)cc5)CC4)nc3s2)cc1` was inactive: -7.24%.
As for `COc1ccc(Cc2nc3ccc(C(=O)NCCc4ccccc4)cc3o2)cc1`, the “activation” value is inactive: -0.8%.
Consider `CCc1ccccc1-n1c2c(cc(-c3nc(-c4ccc(Cl)cc4)cs3)c1=O)C(=O)CC(C)(C)C2`, for which the “activation” value was inactive: -14.5%.
The figure for `CC(=O)N1c2ccc(S(=O)(=O)NCC3CCC(C(=O)Nc4ccc(F)cc4)CC3)cc2CC1C` (stereo not given) is inactive: -13.1%.
The value for `CCOC(=O)c1c(C)[nH]c(C)c1S(=O)(=O)N1CCN(c2ccc(Cl)cc2)CC1` was inactive: -13.2%; that for `CCOc1ccc(OCC)c(NS(=O)(=O)c2ccc3[nH]c(=O)ccc3c2)c1` was inactive: -9.09%; that for `COC[C@@H](c1ccc(C(F)(F)F)cc1)N1CCN(C2(C)CCN(C(=O)c3c(C)ncnc3C)CC2)C[C@H]1C` was inactive: -7.34%.
The figure for `COc1cc2nc(SCC(=O)Nc3cccc(C)c3)n3nc(CCn4c(C)nc5ccccc54)nc3c2cc1OC` is inactive: -13%; for `CC(NC(=O)C1=Cc2ccccc2OC1)c1ccccc1` (stereo not given) it is inactive: -8.04%.
As for `CC(=O)Nc1ccc(NC(=O)Cn2c(=O)ccc3cc(S(=O)(=O)N4CCC(C)CC4)ccc32)cc1`, the “activation” value is inactive: -4.05%.
The figure for `CCCSc1ncc(Cl)c(C(=O)Nc2c(C(=O)c3ccc(F)cc3)oc3ccccc23)n1` is inactive: -11.6%; for `CCOc1ccc(CNC(=O)C2CCCN(S(=O)(=O)N(CC)c3ccc(OCC)cc3)C2)cc1` (stereo not given) it is inactive: -12.5%.
The value for `COc1ccc(-n2ncc(C(=O)Nc3ccc4c(c3)OCCO4)c2C2CCN(C(=O)OC(C)(C)C)CC2)cc1` was inactive: -32.2%.
The figure for `Cc1ccc(Nc2sc(C(=O)c3ccccc3)c(N)c2S(=O)(=O)c2ccccc2)c(C)c1` is inactive: -6.81%; for `COc1ccc(CCNC(=O)c2c(C)nn(-c3ccc(F)cc3)c2-n2cccc2)c(OC)c1OC` it is inactive: -33.5%; for `COc1ccccc1N1CCN(C(=O)Cn2c(=O)n3nc(-c4cccc(C)c4)nc3c3ccccc32)CC1` it is inactive: -11.3%.
As to `CC(C)CSc1ccccc1NC(=O)c1sc2nc(-c3ccncc3)ccc2c1N`, the “activation” value was inactive: -1.56%.
The value for `O=C(Cn1cc(S(=O)(=O)Cc2ccccc2F)c2ccccc21)NCc1ccccc1Cl` was inactive: -8.6%; that for `Cc1cc(C)cc(NC(=O)CN2C(=O)CCc3cc(S(=O)(=O)N4CCCCC4)ccc32)c1` was inactive: 6.8%; that for `Cc1nn2c(=O)cc(COC(=O)c3ccc(NC(=O)c4cccs4)cc3)nc2s1` was inactive: -18.5%.
The value for `CCOC(=O)c1c(NC(=O)C(C)Oc2ccc(Cl)c(C)c2)sc2c1CCCC2` (stereo not given) was inactive: -10.8%.
The figure for `CC(C)Cn1c(=O)c2ccccc2n2c(CCC(=O)Nc3ccc(F)c(F)c3)nnc12` is inactive: -8.8%; for `CCN(C(=O)Cn1nc(Cc2ccncc2)c2ccccc2c1=O)c1cccc(C(F)(F)F)c1` it is inactive: -4.81%; for `O=C(NCCc1ccccc1)c1ccc2c(c1)CCN2S(=O)(=O)c1ccccc1` it is inactive: -10.1%.
In the case of `Cc1ccc(S(=O)(=O)N2CCC(C(=O)Nc3ccc(Oc4ccccc4)cc3)CC2)cc1`, the “activation” value was inactive: -10.7%.
The figure for `CCN(c1cc(C)cc(C)c1)S(=O)(=O)c1nnc(NC(=O)c2ccco2)s1` is inactive: -4.16%; for `COc1ccc(NC(=O)CCN2CCN(CCO)CC2)cc1` it is inactive: 5.02%.
The value for `CCOc1ccc(C(=O)Nc2ccc(-c3nc4ccccc4s3)c(C)c2)cc1OCC` was inactive: -0.738%; that for `O=C(O)CCCCC(=O)O` was inactive: -14.8%; that for `Cc1ccc(NC(=O)Cn2nnc(-c3nc(-c4ccc(Cl)cc4)no3)c2N)cc1C` was inactive: -2.32%.
The figure for `Cc1nc2c(C(=O)NCCc3ccccc3)c[nH]n2c(=O)c1Cc1ccc(F)cc1Cl` is inactive: -15.8%; for `Cc1cccc(N2CCN(C(=O)c3ccc(NC(=O)c4nsc5ccccc45)cc3)CC2)c1C` it is inactive: -23%.
On to `COc1ccc2[nH]cc(CCNC(=O)c3cnn(-c4ccccc4Cl)c3C3CCN(C(=O)OC(C)(C)C)CC3)c2c1`, for which the “activation” value is inactive: -5.76%.
The value for `Cc1ccccc1CNC(=O)c1ccc(CS(=O)Cc2ccc(Cl)cc2)o1` (stereo not given) was inactive: -3.26%; that for `COc1ccc(-n2c(=O)c3sc4ccccc4c3n(CC(=O)NCc3ccccc3)c2=O)cc1` was inactive: -6.67%; that for `CCCn1c(CCC(=O)Nc2cccc(CC)c2)nc2cccnc21` was inactive: -8.29%.
